The record followed here is publication PMC4336329 (PLoS ONE, 2015).

About 14,000 (4.5%) of roughly 310,000 compounds showed an effect of 50% or more. The effect is printed as a negative number. The list shows a part of the results.
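Further: peak tail current of the secondary pulse compared with the same well before compound.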

Chain of human ether-à-go-go-related gene (hERG) potassium channel (Q12809 whole entry, looked up): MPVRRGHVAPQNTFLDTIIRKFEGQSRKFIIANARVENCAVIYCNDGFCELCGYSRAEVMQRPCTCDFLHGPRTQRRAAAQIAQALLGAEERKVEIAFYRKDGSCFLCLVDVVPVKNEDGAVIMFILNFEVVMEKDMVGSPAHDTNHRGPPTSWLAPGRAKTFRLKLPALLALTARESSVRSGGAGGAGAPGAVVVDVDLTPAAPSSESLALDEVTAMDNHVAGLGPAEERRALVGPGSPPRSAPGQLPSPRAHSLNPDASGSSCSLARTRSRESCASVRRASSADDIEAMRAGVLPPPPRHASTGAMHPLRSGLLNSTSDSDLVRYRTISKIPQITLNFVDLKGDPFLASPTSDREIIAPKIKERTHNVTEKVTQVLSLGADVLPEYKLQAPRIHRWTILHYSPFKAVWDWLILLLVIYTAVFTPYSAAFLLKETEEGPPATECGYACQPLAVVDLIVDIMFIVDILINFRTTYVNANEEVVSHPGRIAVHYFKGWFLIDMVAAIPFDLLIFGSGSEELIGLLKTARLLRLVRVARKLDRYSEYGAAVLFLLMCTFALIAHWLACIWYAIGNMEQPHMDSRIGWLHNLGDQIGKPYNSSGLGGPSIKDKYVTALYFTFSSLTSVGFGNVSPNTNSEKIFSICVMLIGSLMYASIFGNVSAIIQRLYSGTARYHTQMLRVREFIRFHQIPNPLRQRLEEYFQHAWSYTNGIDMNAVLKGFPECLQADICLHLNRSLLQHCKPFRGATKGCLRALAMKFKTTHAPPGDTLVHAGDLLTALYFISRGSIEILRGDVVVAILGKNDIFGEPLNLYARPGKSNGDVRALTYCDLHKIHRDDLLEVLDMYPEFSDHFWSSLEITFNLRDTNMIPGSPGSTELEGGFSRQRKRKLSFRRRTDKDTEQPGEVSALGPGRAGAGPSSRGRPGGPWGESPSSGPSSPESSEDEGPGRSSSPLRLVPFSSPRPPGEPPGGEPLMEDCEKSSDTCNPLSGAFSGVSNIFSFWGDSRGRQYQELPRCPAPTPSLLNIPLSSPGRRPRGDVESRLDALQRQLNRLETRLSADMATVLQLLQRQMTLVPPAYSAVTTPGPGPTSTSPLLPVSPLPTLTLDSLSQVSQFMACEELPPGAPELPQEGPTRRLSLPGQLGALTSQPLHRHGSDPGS

The test has as its target human ether-à-go-go-related gene (hERG) potassium channel (human, UniProt Q12809). As to the kind of experiment: primary screen, population patch clamp on CHO cells stably expressing hERG.
For the compound `Cc1ccc2sc(NC(=O)c3ccc(N4C(=O)CCC4=O)cc3)nc2c1C`, the “hERG current change (%, negative = inhibition) at 10uM” value is 15.7%.
Next, `Cc1ccc(NC(=O)c2sccc2-n2cccc2)c(C)c1`: 9.73%; `Cc1ccc(C(=O)N/N=C\c2ccc(-c3ccc([N+](=O)[O-])cc3)o2)cn1`: -9.46%.
In the case of `COc1ccc(C/C(N)=N/OC(=O)CCc2ccccc2)cc1`, the “hERG current change (%, negative = inhibition) at 10uM” value was 14.9%.
On to `CCCC(=O)Nc1nnc(SCC(=O)N2C(C)CCCC2C)s1` (stereo not shown), for which the “hERG current change (%, negative = inhibition) at 10uM” value is reported as -50.1%.
Consider `COc1ccccc1CNC(=O)CNC(=O)c1cn(-c2ccccc2OC)c(=O)c2ccccc12`, for which the “hERG current change (%, negative = inhibition) at 10uM” value was -24.6%.
For `Cc1ccc(S(=O)(=O)N2CCC3(CC2)CC(=O)c2ccccc2O3)cc1`, the “hERG current change (%, negative = inhibition) at 10uM” value is recorded as -25.7%.
Consider `Oc1ccc(/C=N/Nc2nc(N3CCCC3)nc(N3CCCC3)n2)cc1O`, for which the “hERG current change (%, negative = inhibition) at 10uM” value is listed as 2.71%.
Turning to `CCOc1ccc2nc(NC(=O)c3cnc(C)cn3)sc2c1`, the “hERG current change (%, negative = inhibition) at 10uM” value was -6.77%.
Consider `CC(=O)c1cccc(N2C(=NC(=O)C3CCCCC3)SC3CS(=O)(=O)CC32)c1` (stereo not shown), for which the “hERG current change (%, negative = inhibition) at 10uM” value is listed as -32.6%.
Regarding `O=C(CNc1cccc(S(=O)(=O)N2CCCC2)c1)Nc1ccc(C(F)(F)F)cc1`, the “hERG current change (%, negative = inhibition) at 10uM” value was 15.1%.
Turning to `CCCN1CCC(=O)N([C@H](CO)Cc2ccccc2)CC1`, the “hERG current change (%, negative = inhibition) at 10uM” value was 0.476%.
Regarding `O=C(NNC(=S)NC1CCCCC1)c1ccccc1O`, the “hERG current change (%, negative = inhibition) at 10uM” value was 15.2%.
Regarding `Cc1ccc(/C=N/OC(=O)c2c(C)noc2-c2snnc2C)cc1`, the “hERG current change (%, negative = inhibition) at 10uM” value is 9.54%.
In the case of `CCOCCn1c(SC)nc2c1c(=O)[nH]c(=O)n2C`, the “hERG current change (%, negative = inhibition) at 10uM” value worked out at 9.71%.
For the compound `CSc1nnc(N2C(=O)C(O)=C(C(=O)c3ccco3)C2c2ccc(F)cc2)s1` (stereo not shown), the “hERG current change (%, negative = inhibition) at 10uM” value came to 10.7%.
Regarding `O=C(O)c1cccc(Cn2c(Cl)c(/C=N/NC(=O)c3ccccc3)sc2=O)c1`, the “hERG current change (%, negative = inhibition) at 10uM” value was determined as 17%.
Regarding `O=C1NC(=Nc2cccnc2)S/C1=C\c1cccc(F)c1`, the “hERG current change (%, negative = inhibition) at 10uM” value is listed as -2.05%.
As to `CCOc1ccc(CN2CCNC(=O)C2CC(=O)NCC2CCOCC2)cc1` (stereo not shown), the “hERG current change (%, negative = inhibition) at 10uM” value turned out to be 7.02%.
As to `CCOC(=O)CSc1ccc2ccccc2n1`, the “hERG current change (%, negative = inhibition) at 10uM” value was -19.5%.
Consider `Cc1ccc(C)c(SCC(=O)Nc2cccc(S(=O)(=O)NC3=NCCCCC3)c2)c1`, for which the “hERG current change (%, negative = inhibition) at 10uM” value is recorded as -11.1%.
For the compound `CCOc1ccccc1NC(=S)NCc1ccccc1`, the “hERG current change (%, negative = inhibition) at 10uM” value was 7.29%.
As for `O=C(Cn1c(NCCO)nc2ccccc21)NCC(F)(F)F`, the “hERG current change (%, negative = inhibition) at 10uM” value was 10.4%.
With `CN(C)S(=O)(=O)NCCNC(=O)c1cc(OCC(F)(F)F)ccc1OCC(F)(F)F`, the “hERG current change (%, negative = inhibition) at 10uM” value amounted to 4.32%.
Under `CCN(c1ccccc1)S(=O)(=O)c1cccc(C(=O)NCc2ccccc2CN2CCOCC2)c1` stands -37.6%; under `COc1ccc(COC(=O)C2=C(C)NC(=O)NC2c2cccc(Br)c2)cc1` (stereo not shown), 16.6%.
With `O=C(NCc1ccccc1)c1ccc(CS(=O)(=O)Cc2ccccc2F)o1`, the “hERG current change (%, negative = inhibition) at 10uM” value is -5.62%.
Turning to `O=C(CCN1C(=O)/C(=C/C=C/c2ccccc2)SC1=S)Nc1ccccn1`, the “hERG current change (%, negative = inhibition) at 10uM” value was 21.5%.
Take `N#C/C(=C(/O)CSc1ncn[nH]1)c1nc2ccccc2[nH]1`: the “hERG current change (%, negative = inhibition) at 10uM” value is given as 5.68%.
Under `Cc1ccc(S(=O)(=O)NCC(=O)NCC2COc3ccccc3O2)cc1C` (stereo not shown) stands -9.72%; under `COc1cc(Br)cc(Br)c1OCC(=O)N/N=C/c1c(C)n(C)n(-c2ccccc2)c1=O`, -23.1%; under `CCOC(=O)Cn1c(=N)n(CCOc2ccc(Br)cc2)c2ccccc21.Cl`, -69.5%.
On to `COc1cc(C(=O)Nc2ncccc2C)ccc1OCC(=O)N1CCOCC1`, for which the “hERG current change (%, negative = inhibition) at 10uM” value is listed as -4.78%.
Turning to `C/C(CCc1ccccc1)=N/NC(=O)C(=O)NC(C)c1ccccc1` (stereo not shown), the “hERG current change (%, negative = inhibition) at 10uM” value was -7.23%.
Under `COC(=O)C1=C(c2ccc(OC(F)(F)F)cc2)C[C@@H]2CC[C@H]1N2C(=O)NC1Cc2ccccc2C1` stands -13.6%.
Turning to `O=C1NC2(CCCCC2)C(=O)N1c1ccc(Cl)cc1`, the “hERG current change (%, negative = inhibition) at 10uM” value stood at 22.3%.
With `C/C(=N\NC(=S)Nc1cc(S(=O)(=O)N2CCOCC2)ccc1Cl)c1ccccc1F`, the “hERG current change (%, negative = inhibition) at 10uM” value is recorded as 0.315%.
For `O=C1OC(c2ccc(F)cc2)=N/C1=C\C=C/c1ccccc1`, the “hERG current change (%, negative = inhibition) at 10uM” value is listed as 10.9%.
For `Cc1ccc(-c2nc(CS(=O)(=O)CC(=O)N3CCc4ccccc4C3)c(C)o2)cc1`, the “hERG current change (%, negative = inhibition) at 10uM” value is recorded as -16%.
On to `CCCCn1c(N)c(N(Cc2ccccc2OC)C(=O)C(C)Oc2ccc(Cl)cc2)c(=O)[nH]c1=O` (stereo not shown), for which the “hERG current change (%, negative = inhibition) at 10uM” value worked out at 10.7%.
Consider `O=c1c2c3c(sc2n(CCN2CCOCC2)c(=O)n1Cc1ccco1)CCCCC3`, for which the “hERG current change (%, negative = inhibition) at 10uM” value is reported as -44.3%.
With `Br.CC(C)(C)c1ccc(C2=CSC3=NCCN23)cc1`, the “hERG current change (%, negative = inhibition) at 10uM” value is reported as -55.8%.
Take `COC(=O)c1cc2c(ccn2-c2ccc(F)cc2)n1CC(=O)OC(C)C`: the “hERG current change (%, negative = inhibition) at 10uM” value was found to be 27.3%.
Consider `CC(=O)c1c(C)[nH]c(C(=O)OCC(=O)c2c[nH]c3ccccc23)c1C`, for which the “hERG current change (%, negative = inhibition) at 10uM” value is recorded as 10.4%.
For the compound `COc1ccc(C)cc1S(=O)(=O)Nc1ccccc1`, the “hERG current change (%, negative = inhibition) at 10uM” value is reported as -7.39%.
Turning to `Cc1cccc(N2CCN(C(=O)CCC(=O)N3CC(C)Oc4ccc(C)cc43)CC2C)c1` (stereo not shown), the “hERG current change (%, negative = inhibition) at 10uM” value is -37.8%.
Turning to `CCCOc1ccc(CN(CCO)CCO)cc1[N+](=O)[O-].Cl`, the “hERG current change (%, negative = inhibition) at 10uM” value was -54.2%.
Next, `Cc1ccc(S(=O)(=O)C2(C(=O)N3CCN(c4cc(C)ccc4C)CC3)CC2)cc1`: -15.2%; `O=C(NCc1ccccc1)c1cccc(S(=O)(=O)N2CCOCC2)c1`: 0.662%.
Consider `COc1cccc(NC(=S)Nc2ccc(O)cc2)c1`, for which the “hERG current change (%, negative = inhibition) at 10uM” value stood at 15.3%.
On to `CC(=O)C1=C(c2ccccc2)NC(=O)NC1c1ccccc1OCC#N` (stereo not shown), for which the “hERG current change (%, negative = inhibition) at 10uM” value was 2.5%.
Under `CS(=O)(=O)Nc1ccc(C(=O)NCCSCc2c(F)cccc2Cl)cc1` stands -57.7%; under `Cc1nc2ccc(NC(=O)c3c(-c4ccccc4)noc3C)cc2s1`, -9.2%; under `CC(C)Cn1c(=S)[nH]c2ccccc2c1=O`, 22%.
With `COc1ccc(C(C)=O)cc1COC(=O)c1cccnc1SC`, the “hERG current change (%, negative = inhibition) at 10uM” value is 5.68%.
